Several values for one entry are separate records, joined by “and”; a condition that tells them apart may be missing. Identical values can stand only once. The full ranking holds about 2,900 compounds; the median of “NF-kB SEAP reporter activity, fold change vs agonist alone” is about 0.99, and the highest 2% start at about 2.6. This is one part of the list.

The subject of assay [1] is RAW-Dual. The experiment in a line: NF-kB SEAP reporter activity, fold change vs agonist alone; higher = enhanced NF-kB activity. The following applies: library stock concentration (final ~1000-fold dilution): 10 mM. Put shortly:
(§1)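 Library stock was pin-tooled at 50 nL into 384-well plates of RAW-Dual macrophages (50,000 cells/well, DMEM), followed 1 h later by a PRR agonist, and the cells were kept at 37 °C, 5% CO2. Supernatant collected after 20 hours was read for IRF by QuantiLuc luminescence and for NF-κB by QuantiBlue absorbance at 620 nm. Reporter activity is fold change over agonist-alone wells, and a well counted as cytotoxic when its IncuCyte confluency was below 70% of agonist controls in both mask sets.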

The subject of assay [2] is RAW-Dual. The experiment in a line: NF-kB SEAP reporter activity, fold change vs agonist alone; cytotoxicity flag (confluency mask): not cytotoxic; higher = enhanced NF-kB activity. Put shortly: as §1
In assay [3] the test system is RAW-Dual. The experiment in a line: NF-kB SEAP reporter activity, fold change vs agonist alone; cytotoxicity flag (confluency mask): cytotoxic (confluency <70% of control); higher = enhanced NF-kB activity. Put shortly: as §1
Setting [4] is: cytotoxicity flag (confluency mask): not cytotoxic, agonist: Imiquimod (TLR7) […].
Where [5] appears, read: cytotoxicity flag (confluency mask): not cytotoxic, agonist: MPLA (TLR4) […].
The mark [6] stands for this setting: agonist: ODN 1826 (TLR9) 0.5 ug/mL.
Where [7] appears, read: agonist: Pam2CSK4 (TLR2/6) 0.1 ug/mL.
The mark [8] stands for this setting: agonist: Pam3CSK4 (TLR2/1) 0.1 ug/mL.
[9] abbreviates: cytotoxicity flag (confluency mask): cytotoxic (confluency <70% of control), agonist: MPLA (TLR4) […].

Turning to `COc1cc(C)[nH]c(=O)c1CNC(=O)c1c(C)n(C(C)C2CCOCC2)c2ccccc12` (stereo not given), the “NF-kB SEAP reporter activity” value came out at 0.902 in the assay with RAW-Dual [1] (setting [4]) and 1.02 with RAW-Dual [1] (setting [5]).

Turning to `COc1cc(C)[nH]c(=O)c1CNC(=O)c1c(C)n(C(C)C2CCOCC2)c2ccccc12` (stereo not given) (library stock concentration (final ~1000-fold dilution): 10 mM), the “NF-kB SEAP reporter activity” value in the assay on RAW-Dual [2] (agonist: LPS (TLR4) 0.1 ug/mL) came out at 1.26; with RAW-Dual [2] (setting [6]), 1.05; in the assay on RAW-Dual [2] (setting [7]), 0.992; with RAW-Dual [2] (setting [8]), 0.786.

For `O=C1C=C2C=CC3CC2(O1)C1CCCCN31` (stereo not given) (library stock concentration (final ~1000-fold dilution): 10 mM), the “NF-kB SEAP reporter activity” value in the assay with RAW-Dual [2] (agonist: LPS (TLR4) 0.1 ug/mL) is 0.776; with RAW-Dual [2] (setting [6]), 1.11; with RAW-Dual [2] (setting [7]) it was 1.47; in the assay on RAW-Dual [2] (setting [8]), 0.954.

Regarding `O=C1C=C2C=CC3CC2(O1)C1CCCCN31` (stereo not given), the “NF-kB SEAP reporter activity” value in the assay with RAW-Dual [1] (setting [4]) came to 0.985; with RAW-Dual [1] (setting [5]), 0.718.

As for `CC(C)(C)c1cc(C=C(C#N)C#N)cc(C(C)(C)C)c1O`, the “NF-kB SEAP reporter activity” value in the assay on RAW-Dual [1] (setting [9]) came out at 2.56.

Regarding `CC(C)(C)c1cc(C=C(C#N)C#N)cc(C(C)(C)C)c1O` (library stock concentration (final ~1000-fold dilution): 10 mM), the “NF-kB SEAP reporter activity” value in the assay on RAW-Dual [3] (agonist: LPS (TLR4) 0.1 ug/mL) was 5.32.

On to `O=C(O)c1nn(Cc2ccc(Cl)cc2Cl)c2ccccc12` (library stock concentration (final ~1000-fold dilution): 10 mM), for which the “NF-kB SEAP reporter activity” value with RAW-Dual [2] (agonist: LPS (TLR4) 0.1 ug/mL) is 1.29; in the assay on RAW-Dual [2] (setting [6]), 1; with RAW-Dual [2] (setting [7]), 1.06; with RAW-Dual [2] (setting [8]), 1.04.

Regarding `O=C(O)c1nn(Cc2ccc(Cl)cc2Cl)c2ccccc12`, the “NF-kB SEAP reporter activity” value in the assay on RAW-Dual [1] (setting [4]) was determined as 0.825; with RAW-Dual [1] (setting [5]), 0.865.

For `Cc1cc(C(C#N)c2ccc(Cl)cc2)c(Cl)cc1NC(=O)c1cc(I)cc(I)c1O` (stereo not given), the “NF-kB SEAP reporter activity” value is 1.03 with RAW-Dual [1] (setting [4]) and 0.776 in the assay with RAW-Dual [1] (setting [5]).

For the compound `Cc1cc(C(C#N)c2ccc(Cl)cc2)c(Cl)cc1NC(=O)c1cc(I)cc(I)c1O` (stereo not given) (library stock concentration (final ~1000-fold dilution): 10 mM), the “NF-kB SEAP reporter activity” value in the assay with RAW-Dual [2] (agonist: LPS (TLR4) 0.1 ug/mL) amounted to 0.797; in the assay with RAW-Dual [2] (setting [6]) it was 0.822; with RAW-Dual [2] (setting [7]), 0.978; with RAW-Dual [2] (setting [8]) it was 0.62.

As to `CC(=O)O.Cc1cc2c(C(C)C)c(O)c(O)c(C=O)c2c(O)c1-c1c(C)cc2c(C(C)C)c(O)c(O)c(C=O)c2c1O` (library stock concentration (final ~1000-fold dilution): 10 mM), the “NF-kB SEAP reporter activity” value is 3.69 in the assay on RAW-Dual [2] (agonist: LPS (TLR4) 0.1 ug/mL), 0.908 with RAW-Dual [2] (setting [6]), 1.15 in the assay on RAW-Dual [2] (setting [7]) and 1.2 in the assay with RAW-Dual [2] (setting [8]).

Regarding `CC(=O)O.Cc1cc2c(C(C)C)c(O)c(O)c(C=O)c2c(O)c1-c1c(C)cc2c(C(C)C)c(O)c(O)c(C=O)c2c1O`, the figures for the “NF-kB SEAP reporter activity” value in the assay on RAW-Dual [1] (setting [4]) and with RAW-Dual [1] (setting [5]) were 0.906 and 0.963, respectively.

For `O=c1ccc2cc3ccoc3c(O)c2o1` (library stock concentration (final ~1000-fold dilution): 10 mM), the “NF-kB SEAP reporter activity” value was 1.2 and 1.01 in the assay with RAW-Dual [2] (agonist: LPS (TLR4) 0.1 ug/mL); 1.06 and 0.912 in the assay on RAW-Dual [2] (setting [6]); 0.937 and 1.01 with RAW-Dual [2] (setting [7]); 1.12 and 1.05 in the assay on RAW-Dual [2] (setting [8]).

`COc1ccc(C(CN(C)C)C2(O)CCCCC2)cc1.Cl` (stereo not given) (library stock concentration (final ~1000-fold dilution): 10 mM): the “NF-kB SEAP reporter activity” value in the assay with RAW-Dual [2] (agonist: LPS (TLR4) 0.1 ug/mL) came out at 1.56; in the assay on RAW-Dual [2] (setting [6]), 1.09; in the assay with RAW-Dual [2] (setting [7]), 1.02; with RAW-Dual [2] (setting [8]) it was 1.25.

As to `COc1ccc(C(CN(C)C)C2(O)CCCCC2)cc1.Cl` (stereo not given), the “NF-kB SEAP reporter activity” value worked out at 1.11 in the assay with RAW-Dual [1] (setting [4]) and 1.04 in the assay on RAW-Dual [1] (setting [5]).

For `Cl.ClCCN(Cc1ccccc1)Cc1ccccc1` (library stock concentration (final ~1000-fold dilution): 10 mM), the “NF-kB SEAP reporter activity” value was 0.497 in the assay on RAW-Dual [3] (agonist: LPS (TLR4) 0.1 ug/mL), 0.569 in the assay on RAW-Dual [3] (setting [6]), 0.821 with RAW-Dual [3] (setting [7]) and 0.633 in the assay with RAW-Dual [3] (setting [8]).

For `Cl.ClCCN(Cc1ccccc1)Cc1ccccc1`, in the assay on RAW-Dual [1] (setting [9]), the “NF-kB SEAP reporter activity” value worked out at 0.656.

On to `Br.CN1C2CC(OC(=O)C(CO)c3ccccc3)CC1C1OC12` (stereo not given), for which the “NF-kB SEAP reporter activity” value came to 0.918 in the assay on RAW-Dual [1] (setting [4]) and 0.988 with RAW-Dual [1] (setting [5]).

As for `Br.CN1C2CC(OC(=O)C(CO)c3ccccc3)CC1C1OC12` (stereo not given) (library stock concentration (final ~1000-fold dilution): 10 mM), the “NF-kB SEAP reporter activity” value in the assay with RAW-Dual [2] (agonist: LPS (TLR4) 0.1 ug/mL) came out at 0.903; in the assay on RAW-Dual [2] (setting [6]), 0.993; in the assay on RAW-Dual [2] (setting [7]), 0.989; in the assay on RAW-Dual [2] (setting [8]) it was 1.23.

`O=C([O-])C(Cl)Cl.[Na+]` (library stock concentration (final ~1000-fold dilution): 10 mM): the “NF-kB SEAP reporter activity” value in the assay on RAW-Dual [2] (agonist: LPS (TLR4) 0.1 ug/mL) was 1.11 and 0.906; in the assay with RAW-Dual [2] (setting [6]) it was 1.14 and 0.982; in the assay on RAW-Dual [2] (setting [7]) it was 1.11 and 0.989; in the assay with RAW-Dual [2] (setting [8]) it was 1.19 and 1.32.

In the case of `CCN1CCN(C(=O)Cc2ccc(Nc3ncc(F)c(Nc4ccc(C(=O)Nc5ccccc5Cl)cc4)n3)cc2)CC1` (library stock concentration (final ~1000-fold dilution): 10 mM), the “NF-kB SEAP reporter activity” value with RAW-Dual [3] (agonist: LPS (TLR4) 0.1 ug/mL) came to 1.07; in the assay with RAW-Dual [3] (setting [6]) it was 0.351; in the assay on RAW-Dual [3] (setting [7]), 0.508; in the assay on RAW-Dual [3] (setting [8]), 1.06.

In the case of `CCN1CCN(C(=O)Cc2ccc(Nc3ncc(F)c(Nc4ccc(C(=O)Nc5ccccc5Cl)cc4)n3)cc2)CC1`, the “NF-kB SEAP reporter activity” value with RAW-Dual [1] (cytotoxicity flag (confluency mask): cytotoxic (confluency <70% of control), agonist: Imiquimod (TLR7) […]) is 1.36; with RAW-Dual [1] (setting [9]), 1.76.

Turning to `CC(O)(CS(=O)(=O)c1ccc(F)cc1)C(=O)Nc1ccc(C#N)c(C(F)(F)F)c1` (stereo not given) (library stock concentration (final ~1000-fold dilution): 10 mM), the “NF-kB SEAP reporter activity” value in the assay with RAW-Dual [2] (agonist: LPS (TLR4) 0.1 ug/mL) is 0.883; in the assay on RAW-Dual [2] (setting [6]) it was 1.09; in the assay on RAW-Dual [2] (setting [7]), 0.805; in the assay with RAW-Dual [2] (setting [8]), 1.1.

Consider `CC(O)(CS(=O)(=O)c1ccc(F)cc1)C(=O)Nc1ccc(C#N)c(C(F)(F)F)c1` (stereo not given), for which the “NF-kB SEAP reporter activity” value is 1.05 with RAW-Dual [1] (setting [4]) and 1.15 in the assay on RAW-Dual [1] (setting [5]).

With `CC(Nc1ncnc2nc[nH]c12)c1nc2ccc(F)cc2c(=O)n1-c1ccccc1` (stereo not given) (library stock concentration (final ~1000-fold dilution): 10 mM), the “NF-kB SEAP reporter activity” value in the assay with RAW-Dual [2] (agonist: LPS (TLR4) 0.1 ug/mL) is 1.36; with RAW-Dual [2] (setting [6]) it was 1.51; in the assay on RAW-Dual [2] (setting [7]) it was 1; with RAW-Dual [2] (setting [8]), 1.63.

For `CC(Nc1ncnc2nc[nH]c12)c1nc2ccc(F)cc2c(=O)n1-c1ccccc1` (stereo not given), the “NF-kB SEAP reporter activity” value worked out at 1.76 in the assay on RAW-Dual [1] (setting [4]) and 1.11 in the assay on RAW-Dual [1] (setting [5]).

As for `CNC(=O)Oc1cccc2ccccc12`, the “NF-kB SEAP reporter activity” value in the assay with RAW-Dual [1] (setting [5]) came out at 1.21.

As to `CNC(=O)Oc1cccc2ccccc12` (library stock concentration (final ~1000-fold dilution): 10 mM), the “NF-kB SEAP reporter activity” value in the assay with RAW-Dual [2] (agonist: LPS (TLR4) 0.1 ug/mL) stood at 1.09; with RAW-Dual [2] (setting [6]), 0.916; with RAW-Dual [2] (setting [7]), 1.04; with RAW-Dual [2] (setting [8]), 0.896.

These data come from the supplement of paper PMC10037445.
